# Source: paper PMC10120020
# Sequences of proteins named here, by UniProt entry; tags and fusion partners are left off. A change or cut given only in a name is not applied to a line headed by its entry. Residues count along the entry.
# UniProt Q86WV6: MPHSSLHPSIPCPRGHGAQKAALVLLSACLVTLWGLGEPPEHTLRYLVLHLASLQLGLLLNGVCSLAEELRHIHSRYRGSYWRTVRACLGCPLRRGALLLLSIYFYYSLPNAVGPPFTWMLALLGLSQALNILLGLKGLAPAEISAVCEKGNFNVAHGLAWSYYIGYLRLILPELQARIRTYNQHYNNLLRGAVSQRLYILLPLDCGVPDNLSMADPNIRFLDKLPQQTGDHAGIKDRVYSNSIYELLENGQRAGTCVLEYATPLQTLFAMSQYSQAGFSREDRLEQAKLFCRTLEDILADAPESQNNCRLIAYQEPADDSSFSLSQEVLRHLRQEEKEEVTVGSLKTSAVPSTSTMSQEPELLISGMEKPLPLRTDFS
# mGST-fusion protein of STING residues 265 to 379: residues 265-379 of Q86WV6
# UniProt P52630: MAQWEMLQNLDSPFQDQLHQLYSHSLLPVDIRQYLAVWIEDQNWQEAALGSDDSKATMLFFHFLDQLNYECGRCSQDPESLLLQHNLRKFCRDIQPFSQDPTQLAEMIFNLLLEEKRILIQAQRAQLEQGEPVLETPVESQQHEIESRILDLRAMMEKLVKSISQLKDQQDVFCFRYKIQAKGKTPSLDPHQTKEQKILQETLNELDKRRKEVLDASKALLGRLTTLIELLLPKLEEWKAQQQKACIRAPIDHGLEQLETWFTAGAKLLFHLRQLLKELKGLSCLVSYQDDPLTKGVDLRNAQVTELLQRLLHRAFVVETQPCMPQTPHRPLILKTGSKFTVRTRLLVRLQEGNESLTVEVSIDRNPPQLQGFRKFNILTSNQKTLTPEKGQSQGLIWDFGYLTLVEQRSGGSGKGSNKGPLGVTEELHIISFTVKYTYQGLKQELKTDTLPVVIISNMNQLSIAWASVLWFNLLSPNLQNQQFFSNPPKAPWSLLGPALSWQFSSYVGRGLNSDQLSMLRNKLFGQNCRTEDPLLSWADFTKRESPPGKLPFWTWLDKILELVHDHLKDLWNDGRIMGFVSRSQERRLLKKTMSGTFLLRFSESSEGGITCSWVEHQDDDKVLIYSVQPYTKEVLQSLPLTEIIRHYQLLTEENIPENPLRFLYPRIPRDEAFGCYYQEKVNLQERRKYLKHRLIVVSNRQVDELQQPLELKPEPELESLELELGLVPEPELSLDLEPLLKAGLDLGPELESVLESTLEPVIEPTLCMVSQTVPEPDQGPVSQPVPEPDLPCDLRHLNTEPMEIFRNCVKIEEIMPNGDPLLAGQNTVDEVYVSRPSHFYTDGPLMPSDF
# These are yes or no findings as the source states them, for the method shown. Binding seen in cells or lysates may run through a third protein. Some results given as binding are weak or reduced against the parent protein; the word gives no strength.
# Tests used:
# [1] = target: STING (stimulator of interferon genes) (human (endogenous in HT1080)) (UniProt Q86WV6); assay: co-IP; endogenous proteins, HT1080 cells treated with 8 µg/mL cGAMP for 3 h
# [2] = target: STING (Calu-1 cells) (human (endogenous in Calu-1)) (UniProt Q86WV6); assay: co-IP; STAT2-deficient Calu-1 cells restored with WT, T404A, or T404E STAT2, stimulated with 2′3′cGAMP (8 μg/mL) for 3 h
# [3] = target: mGST-fusion protein of STING residues 265 to 379 (UniProt Q86WV6); assay: pull-down; set of mGST-fusion proteins with different STING truncations and deletions, tested with STAT2 (SI Appendix, Fig. S2A-C); called a direct interaction; conditions not told in the main text
# [4] = target: STING (Bimolecular Fluorescence Complementation fusion) (UniProt Q86WV6); assay: split reporter; Bimolecular Fluorescence Complementation of STAT2 and STING in cells (SI Appendix, Fig. S3A)
# [5] = target: T1, calnexin (Co-IP, SI Appendix Fig. S3D) (UniProt P27824); assay: co-IP; Co-IP with calnexin upon treatment with a STING ligand (SI Appendix, Fig. S3D); cells not told in the main text
# T1 sequence: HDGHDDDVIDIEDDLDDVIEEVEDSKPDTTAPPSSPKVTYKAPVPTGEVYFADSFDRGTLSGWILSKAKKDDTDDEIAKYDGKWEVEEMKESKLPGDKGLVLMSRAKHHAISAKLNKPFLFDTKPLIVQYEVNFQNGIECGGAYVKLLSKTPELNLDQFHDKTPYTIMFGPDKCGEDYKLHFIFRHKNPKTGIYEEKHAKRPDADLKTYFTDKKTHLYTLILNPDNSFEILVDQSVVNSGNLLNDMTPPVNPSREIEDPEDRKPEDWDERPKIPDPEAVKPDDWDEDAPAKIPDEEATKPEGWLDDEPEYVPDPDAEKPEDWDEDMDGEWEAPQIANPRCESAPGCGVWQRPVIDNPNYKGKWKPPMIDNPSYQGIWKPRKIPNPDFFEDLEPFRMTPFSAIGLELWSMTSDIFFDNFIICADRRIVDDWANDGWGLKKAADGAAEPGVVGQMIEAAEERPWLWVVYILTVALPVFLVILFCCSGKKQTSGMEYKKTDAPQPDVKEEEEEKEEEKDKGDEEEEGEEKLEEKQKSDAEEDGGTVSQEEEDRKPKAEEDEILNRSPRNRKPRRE
substance,measurement,setting,value
STAT2 (from UniProt P52630 1-851),binding,[1],binds
WT STAT2 (restored in STAT2-deficient Calu-1 cells) (from UniProt P52630 1-851),binding,[2],binds
STAT2 (partner of the mGST-STING fusion proteins) (from UniProt P52630 1-851),binding,[3],binds
T404E STAT2 (restored in STAT2-deficient Calu-1 cells) (from UniProt P52630 1-851),binding,[2],binds
T404A STAT2 (restored in STAT2-deficient Calu-1 cells) (from UniProt P52630 1-851),binding,[2],no binding
STAT2 (Bimolecular Fluorescence Complementation fusion) (from UniProt P52630 1-851),binding,[4],binds
"STAT2 (Co-IP with calnexin, SI Appendix Fig. S3D) (from UniProt P52630 1-851)",binding,[5],binds
